The other results are listed elsewhere or left out.
Experiments:
Assay in all cases: glycan array binding signal (z-score within array); higher = stronger binding
Conditions in all cases: glycan notation: IUPAC condensed, linker removed
GlcNAc(b1-3)Gal(b1-4)Glc = molecular target: GlcNAc(b1-3)Gal(b1-4)Glc
Procedure, shortened: (§1)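 Glycan array binding is given as a within-array Z-score, which can be read as non-binding when negative. The arrays, 3228 of them, came from the Consortium for Functional Glycomics database and were retained only where the protein sequence was available. Z-scores were averaged across arrays of the same protein sequence at different concentrations or buffers and across linkers.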

[1] = molecular target: GlcNAc(b1-3)Gal(b1-4)GlcNAc
Procedure, shortened: as §1

[2] = molecular target: GlcNAc(b1-3)Gal(b1-4)GlcNAc(b1-3)Gal(b1-4)GlcNAc
Procedure, shortened: as §1

GlcNAc(b1-3)GalNAc = molecular target: GlcNAc(b1-3)GalNAc
Procedure, shortened: as §1

GlcNAc(b1-3)Man = molecular target: GlcNAc(b1-3)Man
Procedure, shortened: as §1

[3] = molecular target: GlcNAc(b1-3)[GlcNAc(b1-4)][GlcNAc(b1-6)]GlcNAc
Procedure, shortened: as §1

[4] = molecular target: GlcNAc(b1-3)[GlcNAc(b1-6)]Gal(b1-4)GlcNAc
Procedure, shortened: as §1

[5] = molecular target: GlcNAc(b1-3)[GlcNAc(b1-6)]GalNAc
Procedure, shortened: as §1

[6] = molecular target: GlcNAc(b1-4)Gal(b1-4)GlcNAc
Procedure, shortened: as §1

GlcNAc(b1-4)GlcNAc = molecular target: GlcNAc(b1-4)GlcNAc
Procedure, shortened: as §1

[7] = molecular target: GlcNAc(b1-4)GlcNAc(b1-4)GlcNAc
Procedure, shortened: as §1

[8] = molecular target: GlcNAc(b1-4)GlcNAc(b1-4)GlcNAc(b1-4)GlcNAc(b1-4)GlcNAc
Procedure, shortened: as §1

[9] = molecular target: GlcNAc(b1-4)GlcNAc(b1-4)GlcNAc(b1-4)GlcNAc(b1-4)GlcNAc(b1-4)GlcNAc
Procedure, shortened: as §1

[10] = molecular target: GlcNAc(b1-4)[GlcNAc(b1-6)]GalNAc
Procedure, shortened: as §1

[11] = molecular target: GlcNAc(b1-6)Gal(b1-4)GlcNAc
Procedure, shortened: as §1

GlcNAc(b1-6)GalNAc = molecular target: GlcNAc(b1-6)GalNAc
Procedure, shortened: as §1

GlcNAc3Prop(b1-4)GlcNAc = molecular target: GlcNAc3Prop(b1-4)GlcNAc
Procedure, shortened: as §1

[12] = molecular target: GlcNAc6S(b1-3)Gal(b1-4)GlcNAc
Procedure, shortened: as §1

Kdn(a2-3)Gal(b1-3)GalNAc = molecular target: Kdn(a2-3)Gal(b1-3)GalNAc
Procedure, shortened: as §1

Kdn(a2-3)Gal(b1-3)GlcNAc = molecular target: Kdn(a2-3)Gal(b1-3)GlcNAc
Procedure, shortened: as §1

Kdn(a2-3)Gal(b1-4)Glc = molecular target: Kdn(a2-3)Gal(b1-4)Glc
Procedure, shortened: as §1

Kdn(a2-3)Gal(b1-4)GlcNAc = molecular target: Kdn(a2-3)Gal(b1-4)GlcNAc
Procedure, shortened: as §1

[13] = molecular target: Kdn(a2-3)Gal(b1-4)[Fuc(a1-3)]GlcNAc
Procedure, shortened: as §1

Kdn(a2-6)Gal(b1-4)GlcNAc = molecular target: Kdn(a2-6)Gal(b1-4)GlcNAc
Procedure, shortened: as §1

[14] = molecular target: Man(a1-2)Man(a1-2)Man(a1-3)Man
Procedure, shortened: as §1

[15] = molecular target: Man(a1-2)Man(a1-2)Man(a1-6)[Man(a1-3)]Man
Procedure, shortened: as §1

Man(a1-2)Man(a1-3)Man = molecular target: Man(a1-2)Man(a1-3)Man
Procedure, shortened: as §1

[16] = molecular target: Man(a1-2)Man(a1-3)[Man(a1-2)Man(a1-6)]Man
Procedure, shortened: as §1

[17] = molecular target: Man(a1-2)Man(a1-3)[Man(a1-2)Man(a1-6)]Man(a1-6)[Man(a1-2)Man(a1-2)Man(a1-3)]Man
Procedure, shortened: as §1

[18] = molecular target: Man(a1-2)Man(a1-3)[Man(a1-2)Man(a1-6)]Man(a1-6)[Man(a1-2)Man(a1-2)Man(a1-3)]Man(b1-4)GlcNAc(b1-4)GlcNAc
Procedure, shortened: as §1

[19] = molecular target: Man(a1-2)Man(a1-3)[Man(a1-6)]Man(a1-6)[Man(a1-2)Man(a1-3)]Man(b1-4)GlcNAc(b1-4)GlcNAc
Procedure, shortened: as §1

[20] = molecular target: Man(a1-2)Man(a1-6)[Man(a1-3)]Man(a1-6)[Man(a1-2)Man(a1-2)Man(a1-3)]Man
Procedure, shortened: as §1

B1: Gz-CVNH (Gibberella zeae) (protein)
chain: MGSSHHHHHHSSGLVPRGSHMGNFHESSNNIWLEDGHILHAECGNGEGDYVESTLDLDYYIGNDDGSFSWGGENFSGSASNITLDIEGDDNIPVLRAELNPMDGDPVEANVNLSERIGNDCGTLIFLA
- glycan array binding signal (z-score) (GlcNAc(b1-3)Gal(b1-4)Glc): -0.15
- glycan array binding signal (z-score) [1]: -0.114
- glycan array binding signal (z-score) [2]: -0.14
- glycan array binding signal (z-score) (GlcNAc(b1-3)GalNAc): -0.121
- glycan array binding signal (z-score) (GlcNAc(b1-3)Man): -0.118
- glycan array binding signal (z-score) [3]: -0.114
- glycan array binding signal (z-score) [4]: -0.138
- glycan array binding signal (z-score) [5]: -0.143
- glycan array binding signal (z-score) [6]: -0.102
- glycan array binding signal (z-score) (GlcNAc(b1-4)GlcNAc): -0.123
- glycan array binding signal (z-score) [7]: -0.147
- glycan array binding signal (z-score) [8]: -0.153
- glycan array binding signal (z-score) [9]: -0.153
- glycan array binding signal (z-score) [10]: -0.172
- glycan array binding signal (z-score) [11]: -0.133
- glycan array binding signal (z-score) (GlcNAc(b1-6)GalNAc): -0.143
- glycan array binding signal (z-score) (GlcNAc3Prop(b1-4)GlcNAc): -0.132
- glycan array binding signal (z-score) [12]: -0.162
- glycan array binding signal (z-score) (Kdn(a2-3)Gal(b1-3)GalNAc): -0.14
- glycan array binding signal (z-score) (Kdn(a2-3)Gal(b1-3)GlcNAc): -0.153
- glycan array binding signal (z-score) (Kdn(a2-3)Gal(b1-4)Glc): -0.149
- glycan array binding signal (z-score) (Kdn(a2-3)Gal(b1-4)GlcNAc): -0.117
- glycan array binding signal (z-score) [13]: -0.144
- glycan array binding signal (z-score) (Kdn(a2-6)Gal(b1-4)GlcNAc): -0.11
- glycan array binding signal (z-score) [14]: 3.53
- glycan array binding signal (z-score) [15]: 7.75
- glycan array binding signal (z-score) (Man(a1-2)Man(a1-3)Man): 0.004
- glycan array binding signal (z-score) [16]: 1.63
- glycan array binding signal (z-score) [17]: 12.7
- glycan array binding signal (z-score) [18]: 2.82
- glycan array binding signal (z-score) [19]: 5.4
- glycan array binding signal (z-score) [20]: 9.9

Source: the supplement of paper PMC8728848
